The list shows a part of the results. Sequences were assembled here from the parent chain. Inactive controls read about 0.05.
B1: TEV protease; numbered along this chain (parent)
chain: MGESLFKGPRDYNPISSSICHLTNESDGHTTSLYGIGFGPFIITNKHLFRRNNGTLVVQSLHGVFKVKDTTTLQQHLVDGRDMIIIRMPKDFPPFPQKLKFREPQREERICLVTTNFQTKSMSSMVSDTSCTFPSGDGIFWKHWIQTKDGQCGSPLVSTRDGFIVGIHSASNFTNTNNYFTSVPKNFMELLTNQEAQQWVSGWRLNADSVLWGGHKVFMVKPEEPFQPVKEATQL

Variants of: B1
Experiment: raw area under fraction-flipped curve 0-4 h after induction (AUC4h, not background-subtracted), DNA-recorder readout of cleavage of the substrate (dimensionless); higher = more cleavage of the substrate by the protease variant
Settings: temperature: 34 °C; time window: 0-4 h after rhamnose induction
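Further: Bxb1 expression induced with 0.2% (w/v) L-rhamnose at OD600 near 0.5, cultures sampled hourly, flipped fraction per protease–substrate barcode pair counted by paired-end Illumina sequencing.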

Variant	area with substrate ENDYFQS	area with substrate ENFYFQS	area with substrate ENHYFQS	area with substrate ENMYFQS	area with substrate ENNYFQS	area with substrate ENPYFQS	area with substrate ENQYFQS	area with substrate ENRYFQS	area with substrate ENSYFQS	area with substrate ENTYFQS	area with substrate ENVYFQS	area with substrate ENGYFQS	area with substrate ENWYFQS	area with substrate ENEYFQS	area with substrate ENIYFQS	area with substrate ENYYFQS	area with substrate ENKYFQS
F95G	0.0629	0.0304	0.0401	0.0582	0.0588	0.069	0.0484	0.0559	0.0472	0.0547	0.0539						
Q97S	0.0422			0.0908					0.0574		0.0548						
R102D	0.0599				0.0532	0.0501		0.0552	0.0529		0.0501	0.038	0.0437				
E107K	0.0664		0.0525		0.0705		0.0542	0.0862	0.0677	0.0714		0.0489	0.0708	0.0595	0.0954	0.0742	
C111N	0.0677				0.0636		0.0614	0.0352		0.0763	0.0696			0.0635			0.0629
V113T	0.0773	0.0411	0.0533			0.0451	0.0658	0.0558	0.0588		0.045	0.0592		0.0499		0.0531	0.0641
C131S	0.0564						0.0736			0.0714	0.0854			0.0699	0.0853		
Q151L	0.0646	0.0687	0.062		0.0755	0.059	0.0631	0.0588	0.0518	0.0472		0.0724	0	0.0668	0.0949		
Q151P	0.0577	0.0548	0.0572				0.0655	0.0477	0.0566		0.0224		0.0426	0.0502			0.065
V165S	0.0591	0.0439	0.0544	0.0449		0.0481	0.0453		0.0496	0.0385	0.057	0.0466		0.0544		0.0596	0.0886
F173I	0.0495	0.0517			0.0668	0.0615	0.064	0.0584	0.0682	0.0582	0.0603	0.0683	0.0147	0.0736			0.0525
L190G	0.0544		0.0683	0.0796			0.0628			0.0567	0.0587	0.0644				0.0549	
L205E	0.0621					0.0569	0.0573		0.0595	0.0773	0.0687			0.0676			
G8V							0.0579			0.0585	0.0852			0.0633			
T30K		0.0674			0.0724	0.094	0.036	0.0657	0.0579	0.0631	0.0506			0.0749		0.0423	0.0724
S60D					0.0235	0.0336	0.0489		0.0606	0.0431	0.0596		0.0516	0.0452	0.0751	0.0229	
V67M						0.0654	0.0694				0.0586	0.0668		0.0477			0.0464
I86K		0.0415	0.0662		0.0447		0.0288	0.0353		0.044	0.038		0.0267	0.0437		0.0321	
S182A		0.0652	0.0623		0.0529	0.0778	0.0079							0.0639	0.13	0.0521	
